# Results reported in PubChem BioAssay (NCATS).
# “And” between values parts separate entries of the source, which are not always exact repeats. Equal values may be shown once. The shares of active, inactive and inconclusive entries below differ from those in the screen. For some assays here: Potencies of inconclusive entries are doubtful fits and often do not repeat. Some structures have more than one record in an assay (separate samples or runs), and their calls can disagree. The source made the active and inactive calls. Calls follow the shape of the dose curve; as a rule, active = well fitted curve in the direction sought with a large enough effect; inconclusive = small, poorly fitted or top-dose-only effect, or another doubt; inactive = no such curve, though single readings can be large; an effect the other way counts as inactive or inconclusive.
# Tests used:
# CRL-7250 = normal cell line; assay: Cytotoxic Profiling of Annotated Libraries Using Quantitative High-Throughput Screening (AID 1296008); settings: Five cell lines viability, CellTiter-Glo ATP luminescence, 48-72 h; max response: stronger effect = lower value; also: nearly all actives have a fitted effect of over 60% in size; as to max response: % is scaled to controls: 0 for no effect and ±100 for the full control effect
# Summary of the method: (§1)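 Cytotoxicity was measured as CellTiter-Glo ATP luminescence, read after 10 min at room temperature. Compound treatment of the cells lasted 48 or 72 hr at 37 degrees Celsius in a qHTS format.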
# HEK293 = assay: as above; settings: Five cell lines viability, CellTiter-Glo ATP luminescence, 48-72 h; max response: stronger effect = lower value
# Summary of the method: as §1
# KB-3-1 = assay: as above; settings: Five cell lines viability, CellTiter-Glo ATP luminescence, 48-72 h; max response: stronger effect = lower value
# Summary of the method: as §1
# PA-1 = assay: Primary qHTS to identify gynecologic anti-cancer compounds using libraries of approved drugs and bioactive compounds (AID 1345084); settings: Gynecologic cancer cell panel viability, ATPlite luminescence, 48 h; series mostly up to 57.5 µM; also: nearly all actives have a fitted effect of over 55% in size; as to activity change, negative = cytotoxicity: % is scaled to controls: 0 for no effect and ±100 for the full control effect
# Summary of the method: (§2)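 Measured: luminescence after ATPlite addition (15 min, RT). Exposure: 48 h, 37 C, 5% CO2.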
# SKOV3 = assay: as above; settings: Gynecologic cancer cell panel viability, ATPlite luminescence, 48 h; series mostly up to 57.5 µM
# Summary of the method: as §2
# Tov-21-G = assay: as above; settings: Gynecologic cancer cell panel viability, ATPlite luminescence, 48 h; activity change, negative = cytotoxicity: at 57.5 µM (top of the series)
# Summary of the method: as §2
# [1] = P-glycoprotein substrates identified in KB-8-5-11 adenocarcinoma cell line, qHTS therapeutic library screen (AID 1346987); also: nearly all actives have a fitted effect of over 65% in size
# Summary of the method: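 Luminescence from CellTiter-Glo, read 5 min after addition, quantified survival of KB-8-5-11 (P-gp-overexpressing) cells exposed to compounds for 72 h. AC50 was derived from concentration-response curves.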
# [2] = Primary fluorescence-based thiol-reactive (MSTI) qHTS assay for identification of artifact compounds. (AID 1845221);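 also: thiol-reactive compounds lower the probe fluorescence signal; nearly all actives have a fitted effect of over 65% in size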
# Summary of the method: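 Reactivity toward the thiol probe MSTI (4 uM) is scored by fluorescence at Ex/Em 525/598 nm after 1 h at room temperature. Acetyl-MSTI and MSTI define the activity scale.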
# JEG-3 = assay: Primary qHTS to identify gynecologic anti-cancer compounds using libraries of approved drugs and bioactive compounds (AID 1345084); settings: Gynecologic cancer cell panel viability, ATPlite luminescence, 48 h; series mostly up to 57.5 µM; also: nearly all actives have a fitted effect of over 55% in size; as to activity change, negative = cytotoxicity: % is scaled to controls: 0 for no effect and ±100 for the full control effect
# Summary of the method: as §2
# [3] = Primary qHTS for inhibitors of nuclear receptor binding SET domain protein 2 (NSD2) in an RCH-ACV wild type WT cells (2C) (AID 1645877); settings: activity change, negative = cell killing: at 44.9 µM (top of the series); also: nearly all actives have a fitted effect of over 70% in size
# NIH3T3 = assay: Cytotoxic Profiling of Annotated Libraries Using Quantitative High-Throughput Screening (AID 1296008); settings: Five cell lines viability, CellTiter-Glo ATP luminescence, 48-72 h; max response: stronger effect = lower value; also: nearly all actives have a fitted effect of over 60% in size; as to max response: % is scaled to controls: 0 for no effect and ±100 for the full control effect
# Summary of the method: as §1
# CAOV3 = assay: Primary qHTS to identify gynecologic anti-cancer compounds using libraries of approved drugs and bioactive compounds (AID 1345084); settings: Gynecologic cancer cell panel viability, ATPlite luminescence, 48 h; series mostly up to 57.5 µM; also: nearly all actives have a fitted effect of over 55% in size
# Summary of the method: as §2
# CASKI = assay: as above; settings: Gynecologic cancer cell panel viability, ATPlite luminescence, 48 h; activity change, negative = cytotoxicity: at 57.5 µM (top of the series)
# Summary of the method: as §2
# [4] = Primary qHTS for inhibitors of nuclear receptor binding SET domain protein 2 (NSD2) in an isogenic RCH-ACV NSD2 p.E1099K mutant (9B) (AID 1645876); also: nearly all actives have a fitted effect of over 70% in size
# Es-2 = assay: Primary qHTS to identify gynecologic anti-cancer compounds using libraries of approved drugs and bioactive compounds (AID 1345084); settings: Gynecologic cancer cell panel viability, ATPlite luminescence, 48 h; series mostly up to 57.5 µM; also: nearly all actives have a fitted effect of over 55% in size
# Summary of the method: as §2
# Hek293T = assay: as above; settings: Gynecologic cancer cell panel viability, ATPlite luminescence, 48 h, control line for the selectivity index; series mostly up to 57.5 µM
# Summary of the method: as §2
# [5] = test system: Zika virus NS2B-NS3 protease (unlinked complex); assay: Primary screen GU Rhodamine qHTS for Zika virus inhibitors: Unlinked NS2B-NS3 protease assay (AID 1347159); also: nearly all actives have a fitted effect of over 60% in size
# Summary of the method: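 Unlinked NS2B/NS3, 25 nM; Rhod110 peptide, 1.5 microM; compounds, up to 114 microM. Reaction run 15 min at RT in 10 mM Tris-HCl pH 8.0, 0.01% Tween 20; kinetic fluorescence change fitted with a 4-parameter Hill model.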
# OV90 = assay: Primary qHTS to identify gynecologic anti-cancer compounds using libraries of approved drugs and bioactive compounds (AID 1345084); settings: Gynecologic cancer cell panel viability, ATPlite luminescence, 48 h; series mostly up to 57.5 µM; also: nearly all actives have a fitted effect of over 55% in size
# Summary of the method: as §2
# Tov112D = assay: as above; settings: Gynecologic cancer cell panel viability, ATPlite luminescence, 48 h; activity change, negative = cytotoxicity: at 57.5 µM (top of the series)
# Summary of the method: as §2
# Potency is read from the fitted curve at half-maximal effect; tags tell the direction and shape of the fitted curve.
smiles,measurement,setting,value
C=CC1(C)CC(OC(=O)/C(C)=C\COC(C)=O)C(C(=C)C(=O)O)C(O)C1C(=C)CO (centres undefined),outcome,CRL-7250,inactive
same,max response,HEK293,inactive: -0.348%
same,max response,KB-3-1,inactive: 8.05%
same,Potency,PA-1,inactive
same,Potency,SKOV3,"inconclusive: 11.2 µM [rising, single point]"
same,Potency,Tov-21-G,inactive
Cc1cc(-c2cc(OC(=O)c3ccccc3)ccc2Cl)cc2nnc(Nc3ccc(OCCN4CCCC4)cc3)nc12,Potency,[1],"inconclusive: 10 µM [inhibitor, single point]"
same,Potency,[2],"inconclusive: 1.16 µM [inhibitor, full curve]"
same,Potency,CRL-7250,"inconclusive: 1.59 µM [inhibitor, full curve, poor fit]"
same,Potency,HEK293,"inconclusive: 10 µM [inhibitor, single point]"
same,Potency,KB-3-1,"inconclusive: 12.6 µM [inhibitor, single point]"
same,Potency,JEG-3,inactive
N#Cc1c(C2CCNCC2)cc(-c2c(O)cccc2OCC2CC2)nc1N,Potency,[1],"inconclusive: 20.9 µM [inhibitor, single point] and inconclusive: 20.6 µM [inhibitor, single point]"
same,Potency,[3],active: 9.34 µM
same,Potency,CRL-7250,"inconclusive: 13.2 µM [inhibitor, partial curve] and inconclusive: 29.1 µM [inhibitor, single point]"
same,Potency,HEK293,"active: 20.9 µM and inconclusive: 16.4 µM [inhibitor, single point]"
same,Potency,NIH3T3,"inconclusive: 23.1 µM [inhibitor, single point]"
same,Potency,CAOV3,"inconclusive: 25.1 µM [cytotoxic, single point]"
same,Potency,CASKI,"inconclusive: 39.8 µM [cytotoxic, single point]"
same,Potency,JEG-3,"inconclusive: 39.8 µM [rising, single point]"
same,Potency,PA-1,"inconclusive: 31.6 µM [cytotoxic, single point]"
same,Potency,SKOV3,"inconclusive: 39.8 µM [cytotoxic, single point]"
C[C@@H]1C[C@H]2[C@@H]3CCC4=CC(=O)C=C[C@]4(C)[C@@]3(Cl)[C@@H](O)C[C@]2(C)[C@@]1(OC(=O)c1ccco1)C(=O)CCl,Potency,[4],"inconclusive: 1.66 µM [inhibitor, full curve]"
same,Potency,[3],inactive and active: 1.2 nM
same,Potency,CRL-7250,"inconclusive: 29.9 µM [inhibitor, single point]"
same,Potency,HEK293,"inconclusive: 26.4 µM [inhibitor, single point]"
same,Potency,NIH3T3,"inconclusive: 33.5 µM [inhibitor, single point] and inconclusive: 29.6 µM [inhibitor, single point]"
same,Potency,Es-2,"inconclusive: 39.8 µM [cytotoxic, single point]"
same,Potency,Hek293T,"inconclusive: 39.8 µM [cytotoxic, partial curve, poor fit]"
same,Potency,JEG-3,"inconclusive: 39.8 µM [rising, single point]"
O=C(Nc1cc(C(F)(F)F)cc(C(F)(F)F)c1)c1cnc(Cl)nc1C(F)(F)F,Potency,[5],active: 15.8 µM
same,Potency,[3],"inconclusive: 10.3 µM [inhibitor, partial curve]"
same,Potency,CRL-7250,"inconclusive: 20.6 µM [inhibitor, single point]"
same,Potency,HEK293,"inconclusive: 11.6 µM [inhibitor, partial curve]"
same,Potency,KB-3-1,"inconclusive: 23.1 µM [inhibitor, single point]"
CC/C=C(\C(=O)N[C@@H]1C(=O)N2C(C(=O)OCOC(=O)C(C)(C)C)=C(COC(N)=O)CS[C@H]12)c1csc(N)n1,Potency,[4],"inconclusive: 33.5 µM [inhibitor, single point] and inactive"
same,Potency,[3],"inconclusive: 23.7 µM [inhibitor, single point]"
same,Potency,CRL-7250,"inconclusive: 29.9 µM [inhibitor, single point]"
same,Potency,HEK293,"inconclusive: 33.5 µM [inhibitor, single point]"
same,Potency,NIH3T3,"inconclusive: 14.3 µM [inhibitor, single point]"
same,Potency,CAOV3,inactive
same,Potency,JEG-3,"inconclusive: 1.12 µM [cytotoxic, single point]"
same,Potency,OV90,"inconclusive: 17.8 µM [rising, single point]"
O=C(O)CCC(=O)OC[C@@H](NC(=O)C(Cl)Cl)[C@H](O)c1ccc([N+](=O)[O-])cc1,Potency,[1],inactive
same,Potency,[4],"inconclusive: 29.9 µM [inhibitor, single point]"
same,Potency,[3],"inconclusive: 29.9 µM [inhibitor, single point]"
same,max response,CRL-7250,inactive: -4.73%
same,max response,HEK293,inactive: -21.8%
same,Potency,KB-3-1,"inconclusive: 23.1 µM [inhibitor, partial curve]"
CNCCCN1c2ccccc2CCc2ccccc21,Potency,[1],inactive
same,Potency,CRL-7250,"inconclusive: 33.5 µM [inhibitor, single point]"
same,Potency,HEK293,"inconclusive: 21.1 µM [inhibitor, single point]"
same,Potency,NIH3T3,"inconclusive: 23.7 µM [inhibitor, single point]"
same,Potency,CAOV3,"inconclusive: 39.8 µM [cytotoxic, single point]"
same,Potency,CASKI,"inconclusive: 22.4 µM [cytotoxic, single point]"
same,Potency,OV90,"inconclusive: 39.8 µM [cytotoxic, single point]"
same,Potency,PA-1,inactive
same,Potency,SKOV3,"inconclusive: 25.1 µM [cytotoxic, partial curve, poor fit]"
same,Potency,Tov112D,"inconclusive: 25.1 µM [cytotoxic, single point]"
